According to PubChem BioAssay AID1346428 (National Center for Advancing Translational Sciences (NCATS), 2018):
Several values for one entry are separate records, joined by “and”; a condition that tells them apart may be missing. Equal values may be shown once. Among all 48,000 compounds or so, about 1,200 (2.5%) were called active. Inconclusive results (about 2%) are left out.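 Rule for the calls: active = activation of at least 60% and not above a set upper limit (about 1 call in 100 departs from these limits); inconclusive = activation of 40% to 60%, or above that upper limit; inactive = activation under 40%.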 The list shows a part of the results.

What follows are compounds tested against Probable G-protein coupled receptor 32 (Homo sapiens) (UniProt O75388) (assay: qHTS for Agonists of Human Resolvin D1 Receptor DRV1). Conditions: CHO-K1 GPR32 beta-arrestin PathHunter luminescence, 90 min; at 76.9 µM; active compounds read high; zero percent set by DMSO-only wells.
Method in brief: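 PathHunter enzyme-fragment complementation, CHO-K1 GPR32 stable line; 2,500 cells/well, overnight attach; cpd 90 min 37 °C 5% CO2; detection reagent 1 h RT; chemiluminescence. DMSO = EC0.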
Note: 0% is about no effect.

Sequence of UniProt O75388 (O75388 whole entry, looked up, the tested form may be a part): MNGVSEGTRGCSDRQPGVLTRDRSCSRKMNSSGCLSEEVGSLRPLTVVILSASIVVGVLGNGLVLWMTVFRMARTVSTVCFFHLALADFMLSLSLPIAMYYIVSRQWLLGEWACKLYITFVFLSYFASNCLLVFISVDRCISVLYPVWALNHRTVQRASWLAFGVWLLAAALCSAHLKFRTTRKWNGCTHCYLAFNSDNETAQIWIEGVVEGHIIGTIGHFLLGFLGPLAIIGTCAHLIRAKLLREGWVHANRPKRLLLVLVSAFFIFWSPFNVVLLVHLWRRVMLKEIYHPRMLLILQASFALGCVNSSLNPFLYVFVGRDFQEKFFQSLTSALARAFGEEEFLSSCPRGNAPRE

activation, inactive:
COc1ccc(C)cc1NC(=O)CCNC(=O)Cn1ccc2ccccc2c1=O 26.3%, COc1ccc(NC(=O)c2oc3ccccc3c2NC(=O)Cc2coc3cc(C)ccc23)cc1 -2.04%, COc1ccc2oc(-c3ccc(C)c(NC(=O)c4ccc5c(c4)OCCO5)c3)nc2c1 1.83%, COc1ccc(-n2ncc(C(=O)Nc3ccc4c(c3)OCO4)c2C2CCN(C(=O)OC(C)(C)C)CC2)cc1 -19.2%, Cc1ccc(NC(=O)Cn2cc(S(=O)(=O)Cc3cccc(Cl)c3)c3ccccc32)cc1C -12.8%, COc1ccc(C2=C(C)C(=NCCCN3CCN(c4cc(Cl)ccc4C)CC3)NS2(=O)=O)cc1 24.3%, CCCNC(=O)COCc1cc(-c2ccc(F)cc2)on1 -1.21%, O=C(CCC1N=C2c3ccccc3N=C(SCc3ccccc3F)N2C1=O)NCc1ccccc1 (stereo not given) 38.7%, O=C(NCc1ccccc1Br)c1ccc2c(c1)nc1n2CCOC1 -1.16%, Cn1c(-c2ccccc2)cnc1NCc1ccccc1O -0.318%, COc1ccc(-c2cn3c(n2)sc2cc(C(=O)Nc4cccc(SC)c4)ccc23)cc1 -4.43%, CCc1ccc(N(CC)C(=O)CCn2cnc3onc(-c4ccc(F)cc4)c3c2=O)cc1 4.55%, CCOC(=O)c1c(C)c(-c2ccccc2)n(CC(=O)Nc2ccc(OCC)cc2)c1C -21.6%, O=C(Nc1ccc2nc(SCCOc3ccccc3)sc2c1)c1ccccc1F 20.8%, Cc1ccc(CSC2=Nc3ccccc3C3=NC(CC(=O)NCc4cccs4)C(=O)N23)c(C)c1 (stereo not given) -26.4%, CCCCNS(=O)(=O)c1ccc(N2CCCCS2(=O)=O)cc1 5.54%, Cc1ccc(Cl)cc1N1CCN(C(=O)C2CCN(S(=O)(=O)Cc3ccccc3)CC2)CC1 10.2%, COc1ccccc1-c1noc(-c2ccc(N3CCN(C)CC3)c([N+](=O)[O-])c2)n1 0%, Cc1ccc(-c2ccc(=O)n(CC(=O)NCCc3ccc(Cl)cc3)n2)cc1 -16%, CCCOc1ccc(CNC(=O)c2ccc3c(c2)N(Cc2ccccc2)CCS3)cc1 -14.9%, COC(=O)C(CCSC)NC(=O)Cn1ncc2c([nH]c3ccccc32)c1=O (stereo not given) -5.36%, COc1ccc(NC(=O)c2c(NCc3cccs3)sc3c2CCCC3)c(OC)c1 -27.5%, COc1cccc2c1cc1c(=O)n(CC(=O)N3CCN(c4cccc(Cl)c4)CC3)nc(C)n12 -3.17%, O=C(OCc1cc(=O)n2nc(-c3cccs3)sc2n1)c1ccccc1 -0.717%, CC(=O)n1nc(-c2cccnc2)nc1NCc1ccc(F)cc1 -2.8%, O=C(c1ccc(Cl)cc1)N1CCC(c2nc3ccccc3o2)CC1 -7.55%, O=C1c2oc3ccccc3c(=O)c2C(c2ccc(O)cc2)N1Cc1ccc2c(c1)OCO2 (stereo not given) -8.49%, CCn1cc(C(=O)OCC(=O)Nc2cc(OC)cc(OC)c2)c(=O)c2ccc(C)nc21 -9.93%, Cc1ccc(CNC(=O)CN2C(=O)CSc3ccc(S(=O)(=O)N(C)C)cc32)cc1 14%, CCOc1ccc(NC(=O)c2c(NCc3ccc(C)o3)sc3c2CCCCC3)cc1 -19.5%, COc1ccc(OC)c(CCNC(=O)Cn2ccc3cc(S(=O)(=O)N4CCCCC4)ccc32)c1 0.0291%, CCCC(CCC)C(=O)O -15.2% and -5.38%, CC(C)[N+](C)(C)CC(O)COc1cccc2ccccc12 (stereo not given) 5.64%, COc1ccc(OC)c(-c2noc(N3CCN(c4cc(C)ccc4C)CC3)n2)c1 1.04%, Cc1ccc(C)c(CNC(=O)c2ccc3c(c2)nc2n3CCC(C)C2)c1 (stereo not given) -14.2%, Cc1ccc(N(C)S(=O)(=O)c2nnc(NC(=O)CC(C)C)s2)cc1 -10.1%, COc1ccccc1-c1cc2nc(C)c(CCC(=O)NCCc3ccc(SC)cc3)c(C)n2n1 -15.5%, CCOC(=O)c1cc(OC(=O)c2ccc(OC)cc2)n(-c2ccccc2)n1 6%, COc1ccc(NC(=O)C(Cc2ccccc2)NS(=O)(=O)c2ccc3c(c2)CCN3C(C)=O)cc1 (stereo not given) -12%, CCCn1c(=N)c(C(=O)NCc2cccnc2)cc2c(=O)n3ccccc3nc21 39.9%, CN(C)CCCC1(c2ccc(F)cc2)OCc2cc(C#N)ccc21 (stereo not given) 0.401%, Nn1nnc2ccccc21 1.4%, CCOC(=O)Cc1ccc(NC(=O)Nc2cc3c(cc2N2CCCCC2)n(C)c(=O)n3C)cc1 19%, O=C(Nc1ccc(F)cc1F)c1ccc2c(c1)CCN2S(=O)(=O)c1ccc(Cl)cc1 -7.81%, COc1ccc(-n2cc(C(=O)Nc3cc(F)ccc3F)c3ccccc3c2=O)cc1 -25.3%, CCOC(=O)c1cc2c(=O)n3ccccc3nc2n(C)c1=NC(=O)c1c(-c2ccccc2Cl)noc1C 1.27%, Cc1ccc(NC(=O)Cn2c(=O)ccc3cc(S(=O)(=O)N4CCC(C)CC4)ccc32)c(C)c1 -2.3%, COCCCNC(=O)C1CCC(CNS(=O)(=O)c2ccc(OC)cc2)CC1 (stereo not given) -7.55%, CCCCOC(=O)c1ccc(NC(=O)CC2NCCNC2=O)cc1 (stereo not given) -6.26%, CCOc1ccc(CNC(=O)Cn2ccc3cc(S(=O)(=O)N4CCCCCC4)ccc32)cc1 23.4%, COc1ccc2oc(=O)c(C(=O)Nc3cccc(C(=O)O)c3)cc2c1 -2.49%, COc1cccc(CNC(=O)C2CCN(Cc3cc4ccccc4n3Cc3ccc(C)cc3)CC2)c1 -9.35%, COc1cc(-c2cc3n(C)c(C)c(CCC(=O)NCc4ccccc4)c(=O)n3n2)cc(OC)c1OC -17.7%, Cc1ccc2occ(CC(=O)Nc3ccc(S(=O)(=O)N4CCCC(C)C4)cc3)c2c1 (stereo not given) -4.36%, Cc1ccccc1Cn1nnc2c(=O)[nH]c(C3CCN(C(=O)c4ccccc4Cl)CC3)nc21 -18.6%, COc1ccc(NC(=O)C2CCN(C(=O)N3CCOc4ccccc43)CC2)cc1 2.5%, COc1ccc(NC(=O)CN2C(=O)CSc3ccc(S(=O)(=O)N(C)C)cc32)cc1Cl 5.24%, O=C(Nc1ccc(Cl)c(C(F)(F)F)c1)c1ccc2c(c1)CCN2S(=O)(=O)c1ccccc1 -4.56%, COc1ccc(CNC(=O)CCCn2c(=O)c3cccn3c3ccc(F)cc32)cc1OC -14.2%, Cc1ccc(-n2ncc(C(=O)NCc3ccccn3)c2C2CCN(C(=O)OC(C)(C)C)CC2)c(C)c1 19.8%, O=c1c2cc3c(cc2n(Cc2ccccc2)c(=O)n1Cc1nc(-c2ccccc2)no1)OCO3 10.4%, COc1ccc(-c2noc(N3CCC(C(=O)Nc4ccc(OC)c(OC)c4)CC3)n2)cc1 -0.373%, COCCCNC(=O)C(C)n1c2ccccc2c2cnn(C)c(=O)c21 (stereo not given) 0.249%, CCC1CN(C(=O)NCc2ccccc2)c2cc(C)ccc2O1 (stereo not given) -32.5%, COc1ccc(NC(=O)N2CCN(S(=O)(=O)c3ccc4c(ccn4C)c3)CC2)cc1OC 12.1%, Cc1cccc(C)c1NC(=O)CN(Cc1ccc(Br)cc1)S(=O)(=O)c1ccccc1 -3.31%, COc1ccc(Br)cc1CNC(=O)c1cc(=O)[nH]c2ccc(S(=O)(=O)N3CCCCC3)cc12 -5.68%, CCCSc1nc(-c2ccc(OC)cc2)cc(-c2ccccc2OC)c1C#N -16.4%, CN(C)c1ccc(C(CNC(=O)c2cccc(C(F)(F)F)c2)N2CCCC2)cc1 (stereo not given) -19.3%, COc1ccc(Cl)cc1Nc1cc(C)nc2nc(-c3ccccc3C)nn12 1.5%, CCCCCCCC/C=C\CCCCCCCCN 14.4%, CCOc1ccc(NC(=O)C2CCN(S(=O)(=O)c3c(C)noc3/C=C/c3c(C)cc(C)cc3C)CC2)cc1 -13.4%, Cc1ccc(CNc2ncnc3c2c(-c2ccccc2)cn3-c2ccccc2)cc1 -13.7%, CCCC(=O)Nc1cccc(-c2cn3cccnc3n2)c1 13.1%, CCOC(=O)c1ccc(NS(=O)(=O)c2ccc3c(c2)OCCO3)cc1 31.3%, CN(C)[C@@H](CCOc1cccc2ccccc12)c1ccccc1 3.64%, Cc1cc(C)cc(NC(=O)c2oc3ccc4c(c3c2C)C(=O)CC(C)(C)O4)c1 10.3%, COc1ccc2c(c1)c1c(c(=O)n(Cc3ccccc3)c(=O)n1CC(=O)NCc1ccc(C)cc1)n2C 19.3%, O=C(O)CNC(=O)C(CS)Cc1ccccc1 (stereo not given) 0.609%, O=C(NCc1ccc(F)cc1)C1CCCCN1S(=O)(=O)c1ccc(F)cc1 (stereo not given) -4.43%, CSc1ccc(C(=O)Nc2ccc(-c3nc4ccccc4s3)c(O)c2)cc1 -5.62%, CCC(=O)N1CCc2cc(S(=O)(=O)CCC(=O)N3CCN(c4cccc(Cl)c4)CC3)ccc21 41.9%, Cc1ccc(C)c(N2CCN(C(=O)c3ccc(Nc4nc5ccccc5n5nnnc45)cc3)CC2)c1 -6.5%, COc1ccc(N2CCN(C(=O)CCC(=O)NNc3nc4ccccc4c4nc(C)nn34)CC2)cc1 -14.4%

activation, active:
N=c1n(CCN2CCCCC2)c2ccccc2n1CC(O)COc1ccccc1 (stereo not given) 65.4%
